Results published in the supplement of paper PMC8728848.
The list shows a part of the results.

Legend:
Assay in all cases: glycan array binding signal (z-score within array); higher = stronger binding
Details in all cases: glycan notation: IUPAC condensed, linker removed
[1] = target: Gal(b1-4)GlcNAc(b1-3)Gal(b1-4)[Fuc(a1-3)]GlcNAc(b1-3)Gal(b1-4)[Fuc(a1-3)]GlcNAc
Outline: (§1)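 Glycan array data were curated from 3228 arrays in the Consortium for Functional Glycomics database and kept only where the protein sequence was available. Glycan names were converted to IUPAC-condensed notation, and columns mapping to the same glycan were averaged. The binding signal is a within-array Z-score, averaged across arrays of the same protein sequence at different concentrations or buffers and across linkers. Negative Z-scores can be read as non-binding.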

[2] = target: Gal(b1-4)GlcNAc(b1-3)GalNAc
Outline: as §1

[3] = target: Gal(b1-4)GlcNAc(b1-3)[Fuc(a1-3)GlcNAc(b1-6)]Gal(b1-4)Glc
Outline: as §1

[4] = target: Gal(b1-4)GlcNAc(b1-3)[Gal(b1-4)GlcNAc(b1-6)]Gal(b1-4)GlcNAc
Outline: as §1

[5] = target: Gal(b1-4)GlcNAc(b1-3)[GlcNAc(b1-6)]Gal(b1-4)GlcNAc
Outline: as §1

[6] = target: Gal(b1-4)GlcNAc(b1-6)Gal(b1-4)GlcNAc
Outline: as §1

[7] = target: Gal(b1-4)GlcNAc(b1-6)GalNAc
Outline: as §1

[8] = target: Gal(b1-4)GlcNAc(b1-6)[Gal(b1-3)]GalNAc
Outline: as §1

[9] = target: Gal(b1-4)GlcNAc(b1-6)[Gal(b1-4)GlcNAc(b1-3)]GalNAc
Outline: as §1

Gal(b1-4)GlcNAc6P = target: Gal(b1-4)GlcNAc6P
Outline: as §1

Gal(b1-6)Gal = target: Gal(b1-6)Gal
Outline: as §1

Gal3S(b1-3)GalNAc = target: Gal3S(b1-3)GalNAc
Outline: as §1

Gal3S(b1-3)GlcNAc = target: Gal3S(b1-3)GlcNAc
Outline: as §1

[10] = target: Gal3S(b1-3)[Fuc(a1-4)]GlcNAc
Outline: as §1

Gal3S(b1-4)Glc = target: Gal3S(b1-4)Glc
Outline: as §1

Gal3S(b1-4)Glc6S = target: Gal3S(b1-4)Glc6S
Outline: as §1

Gal3S(b1-4)GlcNAc = target: Gal3S(b1-4)GlcNAc
Outline: as §1

[11] = target: Gal3S(b1-4)[Fuc(a1-3)]Glc6S
Outline: as §1

[12] = target: Gal3S(b1-4)[Fuc(a1-3)]GlcNAc
Outline: as §1

[13] = target: Gal3S(b1-4)[Fuc(a1-3)]GlcNAc6S
Outline: as §1

Gal3S4S(b1-4)GlcNAc = target: Gal3S4S(b1-4)GlcNAc
Outline: as §1

Gal3S6S(b1-4)GlcNAc = target: Gal3S6S(b1-4)GlcNAc
Outline: as §1

Gal3S6S(b1-4)GlcNAc6S = target: Gal3S6S(b1-4)GlcNAc6S
Outline: as §1

Gal4S(b1-4)GlcNAc = target: Gal4S(b1-4)GlcNAc
Outline: as §1

Gal4S6S(b1-4)GlcNAc = target: Gal4S6S(b1-4)GlcNAc
Outline: as §1

Gal6P(b1-4)GlcNAc = target: Gal6P(b1-4)GlcNAc
Outline: as §1

Gal6S(b1-3)GlcNAc = target: Gal6S(b1-3)GlcNAc
Outline: as §1

Gal6S(b1-3)GlcNAc6S = target: Gal6S(b1-3)GlcNAc6S
Outline: as §1

Gal6S(b1-4)Glc = target: Gal6S(b1-4)Glc
Outline: as §1

Gal6S(b1-4)Glc6S = target: Gal6S(b1-4)Glc6S
Outline: as §1

Gal6S(b1-4)GlcNAc = target: Gal6S(b1-4)GlcNAc
Outline: as §1

Gal6S(b1-4)GlcNAc6S = target: Gal6S(b1-4)GlcNAc6S
Outline: as §1

GalNAc(a1-3)Gal = target: GalNAc(a1-3)Gal
Outline: as §1

GalNAc(a1-3)GalNAc = target: GalNAc(a1-3)GalNAc
Outline: as §1

[14] = target: GalNAc(a1-3)GalNAc(a1-3)Gal(a1-4)Gal(b1-4)GlcNAc
Outline: as §1

[15] = target: GalNAc(a1-3)GalNAc(b1-3)Gal(a1-4)Gal(b1-4)Glc
Outline: as §1

GalNAc(b1-3)Gal = target: GalNAc(b1-3)Gal
Outline: as §1

B1: CPA (Cicer arietinum) (protein)
chain: MAFSYLNLVLVTLTTLFFLQTTKVKSQKSVSFHITNFTISRPSITLQGTAEFLPNVLLLNDIEHPVFVVGRALYSKPITLWNNKTGKVASFVTSFTFDVQDLKKTVPGHGLVFFLAPSGSEIPFSSDGGNLGVVDGKNAFNRFVGVEFDNFVNSWDPKYSHVGINVNSLISTKTVKWNRVSGELVKVSIVYDSVSTTLTVIVTYKNGQISILSQLVDLKAVLPDTVNIGFSASTTLVSPRQLHNIHSWSFTSTFET
glycan array binding signal (z-score) [1]: -0.289
glycan array binding signal (z-score) [2]: -0.24
glycan array binding signal (z-score) [3]: -0.234
glycan array binding signal (z-score) [4]: -0.064
glycan array binding signal (z-score) [5]: -0.304
glycan array binding signal (z-score) [6]: -0.157
glycan array binding signal (z-score) [7]: 1.23
glycan array binding signal (z-score) [8]: -0.371
glycan array binding signal (z-score) [9]: 3.6
glycan array binding signal (z-score) (Gal(b1-4)GlcNAc6P): 5.14
glycan array binding signal (z-score) (Gal(b1-6)Gal): 0.108
glycan array binding signal (z-score) (Gal3S(b1-3)GalNAc): -0.183
glycan array binding signal (z-score) (Gal3S(b1-3)GlcNAc): -0.472
glycan array binding signal (z-score) [10]: -0.376
glycan array binding signal (z-score) (Gal3S(b1-4)Glc): -0.53
glycan array binding signal (z-score) (Gal3S(b1-4)Glc6S): -0.415
glycan array binding signal (z-score) (Gal3S(b1-4)GlcNAc): -0.634
glycan array binding signal (z-score) [11]: 0.2
glycan array binding signal (z-score) [12]: -0.769
glycan array binding signal (z-score) [13]: -0.546
glycan array binding signal (z-score) (Gal3S4S(b1-4)GlcNAc): -0.626
glycan array binding signal (z-score) (Gal3S6S(b1-4)GlcNAc): -0.404
glycan array binding signal (z-score) (Gal3S6S(b1-4)GlcNAc6S): -0.445
glycan array binding signal (z-score) (Gal4S(b1-4)GlcNAc): -0.288
glycan array binding signal (z-score) (Gal4S6S(b1-4)GlcNAc): -0.408
glycan array binding signal (z-score) (Gal6P(b1-4)GlcNAc): -0.744
glycan array binding signal (z-score) (Gal6S(b1-3)GlcNAc): -0.572
glycan array binding signal (z-score) (Gal6S(b1-3)GlcNAc6S): -0.633
glycan array binding signal (z-score) (Gal6S(b1-4)Glc): 0.138
glycan array binding signal (z-score) (Gal6S(b1-4)Glc6S): 0.188
glycan array binding signal (z-score) (Gal6S(b1-4)GlcNAc): -0.391
glycan array binding signal (z-score) (Gal6S(b1-4)GlcNAc6S): -0.461
glycan array binding signal (z-score) (GalNAc(a1-3)Gal): -0.194
glycan array binding signal (z-score) (GalNAc(a1-3)GalNAc): -0.504
glycan array binding signal (z-score) [14]: -0.604
glycan array binding signal (z-score) [15]: -0.586
glycan array binding signal (z-score) (GalNAc(b1-3)Gal): -0.473
